± gives the uncertainty stated by the source. In all, about 9,900 compounds were measured (“viability index relative to DMSO control”: median about 1, lowest 2% from about 0.85 on). The list shows a part of the results.

The test relates to Plasmodium falciparum NF54 stage V gametocytes. As to the kind of experiment: viability index relative to DMSO control (fraction); higher = less gametocyte killing. Conditions: 2.5 µM, library set: Broad Institute DOS, incubation time: 72 h. In outline: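 Compound at 2.5 µM was incubated for 72 hr at 37°C under low oxygen with P. falciparum NF54 stage V gametocytes (0.75% gametocytemia, 1.25% hematocrit, 10 µl, serum-free screening medium) in 1,536-well plates. Staining used 3 µl of 2.5 µM MitoTracker Red CMXRos plus 0.13% saponin for one to two hours, and red particles of 20–70 µm2 were counted in one imaged field per well. Each viability index is that count relative to the plate mean of solvent-only wells.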
`CCS(=O)(=O)N1C[C@@]2(C1)CN(Cc1cccc(Cl)c1)[C@H](CO)c1c2c2ccc(OC)cc2n1C` had a viability index of 0.907 ± 0.086. Consider `Cc1ccc(S(=O)(=O)Nc2cccc3c2O[C@@H](CN(C)C(=O)Nc2ccc(C(F)(F)F)cc2)[C@H](C)CN([C@H](C)CO)C3=O)cc1`, for which the viability index is 1.08 ± 0.082.

`O=C(CC1CC1)N1CC2(C1)[C@H](c1ccccc1)[C@H](CO)N2S(=O)(=O)Cc1ccccc1` registered a viability index of 1.1 ± 0.012. As for `CNC[C@H]1OCCCC[C@H](C)Oc2ccc(NS(=O)(=O)c3ccc(F)cc3)cc2C(=O)N([C@@H](C)CO)C[C@@H]1C`, the figure is 1.08 ± 0.072. The figure for `C[C@H]1CN([C@@H](C)CO)C(=O)CCCn2nncc2CO[C@H]1CN(C)S(=O)(=O)c1ccccc1C#N` is 1.11 ± 0.088. As for `Cc1ccccc1S(=O)(=O)N1CCCCN2[C@@H](CO)[C@H](c3ccc(C#CCN(C)C)cc3)[C@@H]2C1`, the figure is 1.02 ± 0.023; as for `CCCC#Cc1ccc([C@@H]2[C@@H](CO)N3C(=O)CN(C(=O)Nc4cccc(F)c4)C[C@@H]23)cc1`, 1.06 ± 0.013. As for `COCC(=O)Nc1ccc2c(c1)[C@H]1C[C@H](CC(=O)N[C@@H](C)c3ccccc3)O[C@@H](CO)[C@H]1O2`, the viability index was 1.038 ± 0.0089.

Consider `CN(C)C(=O)c1ccc(-c2ccccc2[C@@H]2[C@H](C#N)N(C(=O)C3CC3)[C@H]2CO)cc1`, for which the viability index stood at 1.07 ± 0.041.

For `N#C[C@@H]1N[C@@H](CO)[C@H]1c1ccc(C#Cc2ccccc2F)cc1`, the viability index amounted to 1.09 ± 0.023.

On to `CCCNC(=O)Nc1ccc2c(c1)OC[C@H](C)N(C(=O)C1CCOCC1)C[C@@H](C)[C@H](OC)CN(C)C2=O`, for which the viability index worked out at 0.9626 ± 0.0033. Take `C[C@H]1CN([C@@H](C)CO)C(=O)CCCn2nncc2CO[C@@H]1CN(C)C(=O)c1ccc(N2CCN(C)CC2)cc1`: the viability index turned out to be 1.089 ± 0.0044.

Compound `COc1ccc(C#Cc2ccc([C@H]3[C@H](CO)N4C(=O)CN(C(=O)c5ccc(F)cc5)C[C@@H]34)cc2)cc1` yielded a viability index of 1.06 ± 0.036. The figure for `N#C[C@@H]1[C@H](c2ccc(C3=CCCC3)cc2)[C@@H](CO)N1C(=O)c1ccccn1` is 1.13 ± 0.065; for `C[C@@H]1CCCCO[C@H](CN(C)C(=O)Nc2cccc3ccccc23)[C@@H](C)CN([C@@H](C)CO)C(=O)c2cc(NC(=O)CCC(F)(F)F)ccc2O1` it is 0.995 ± 0.014. Compound `C[C@@H]1CCCCO[C@@H](CN(C)C(=O)Nc2ccccc2)[C@H](C)CN([C@@H](C)CO)C(=O)c2cc(NC(=O)Nc3ccccc3)ccc2O1` gave a viability index of 1.08 ± 0.047. The figure for `Cc1ccc(S(=O)(=O)N2C[C@H](O)COC[C@H]3O[C@@H](CC(=O)N4CCc5ccccc5C4)CC[C@@H]32)cc1` is 1.07 ± 0.078; for `CCc1cnc(N2[C@H](C#N)[C@@H](c3ccc(C#Cc4ccccc4F)cc3)[C@H]2CO)s1` it is 1.05 ± 0.12; for `CN(C)CC(=O)N1CC2(C1)[C@H](c1ccccc1)[C@H](CO)N2C(=O)C1CC1` it is 1.08 ± 0.026. In the case of `O=C(CCN1CCCCC1)N[C@@H]1CC[C@@H](CC(=O)N2CCC(Cc3ccccc3)CC2)O[C@@H]1CO`, the viability index came to 0.954 ± 0.15. As to `O=C(C[C@H]1CC[C@H]2[C@@H](COC[C@@H](O)CN2C(=O)Cc2ccccc2)O1)NC1Cc2ccccc2C1`, the viability index was 1.07 ± 0.057. The figure for `C[C@@H]1CCCCO[C@H](CN(C)C(=O)CCCN(C)C)[C@@H](C)CN([C@H](C)CO)C(=O)c2cc(NC(=O)Nc3ccc4c(c3)OCO4)ccc2O1` is 1.05 ± 0.013; for `O=C(C[C@H]1C=C[C@H](NC(=O)Cc2cccnc2)[C@H](CO)O1)NCc1ccc2c(c1)OCO2` it is 1.11 ± 0.084.

Consider `COc1cccc(CNC(=O)C[C@H]2CC[C@H]3[C@H](COc4ccc(NC(=O)c5cccs5)cc4C(=O)N3C)O2)c1`, for which the viability index was found to be 0.909 ± 0.067. As for `OC[C@@H]1Nc2ccc(C3=CCCCC3)cc2[C@@H]2[C@H]1CCN2Cc1nccs1`, the figure is 1.06 ± 0.059; as for `COc1ccc(CN(C)C[C@H]2OCc3cnnn3CCCC(=O)N([C@@H](C)CO)C[C@H]2C)cc1`, 1.01 ± 0.043; as for `C[C@@H]1CN([C@H](C)CO)C(=O)CCCn2nncc2CO[C@H]1CN(C)C(=O)c1ccc2ccn(C)c2c1`, 0.999 ± 0.036.

In turn, `O=C(Nc1ccc(F)cc1)N1[C@@H](CO)[C@@H]2c3ccccc3NC[C@@H]21` came in with a viability index of 0.982 ± 0.079. The figure for `COc1ccc(S(=O)(=O)N2CC[C@@H]3[C@H]2c2cc(Br)ccc2N[C@@H]3CO)cc1` is 1.07 ± 0.097. As for `CN1C(=O)c2cc(NC(=O)NCc3ccccc3)ccc2OC[C@H]2O[C@@H](CC(=O)NCC3CCCCC3)CC[C@H]21`, the figure is 1.14 ± 0.052; as for `CS(=O)(=O)N1[C@@H]2Cn3c(ccc(-c4cccc(F)c4)c3=O)[C@H]1[C@@H](C(=O)N1CCCCC1)[C@@H]2CO`, 0.966 ± 0.057; as for `C/C=C/c1ccc([C@@H]2[C@H](CO)N(CC3CC3)C23CN(C(=O)c2ccc4c(c2)OCO4)C3)cc1`, 1.11 ± 0.062. As for `O=C(C[C@@H]1CC[C@@H]2[C@H](COC[C@@H](O)CN2C(=O)c2cnccn2)O1)NCc1ccc(Cl)cc1`, the figure is 0.981 ± 0.017.

In turn, `COc1ccc(C#Cc2ccc([C@@H]3[C@@H](CO)N4C(=O)CN(C(=O)c5ccc(F)cc5)C[C@H]34)cc2)cc1` returned a viability index of 1.076 ± 0.0071.

On to `CN1C(=O)c2cc(NS(=O)(=O)c3cccc(F)c3)ccc2OC[C@H]2O[C@@H](CC(=O)NCCN3CCCCC3)CC[C@H]21`, for which the viability index was determined as 0.924 ± 0.052. As for `Cc1noc(C)c1S(=O)(=O)N(C)C[C@H]1Oc2c(NS(=O)(=O)c3cn(C)cn3)cccc2C(=O)N([C@@H](C)CO)C[C@@H]1C`, the figure is 1.029 ± 0.0067; as for `COc1ccc2c3c([nH]c2c1)[C@H](CO)N(Cc1ccncc1)C[C@]31CCN(CC2CCOCC2)CC1`, 0.974 ± 0.033; as for `C(=C\c1ccc([C@@H]2[C@@H]3CN(Cc4nccs4)C[C@H]2N3)cc1)/c1ccccc1`, 1.02 ± 0.065. The figure for `Cc1noc(C)c1S(=O)(=O)Nc1ccc2c(c1)C(=O)N([C@@H](C)CO)C[C@@H](C)[C@@H](CN(C)Cc1ccc(C(=O)O)cc1)OCCCC[C@H](C)O2` is 1.14 ± 0.046; for `C[C@@H]1CN([C@H](C)CO)C(=O)c2ccccc2-c2ccccc2CO[C@@H]1CN(C)C(=O)CCC(F)(F)F` it is 0.935 ± 0.14; for `COc1cccc(C#Cc2ccc3c(c2)[C@@H]2[C@@H](CCN2C(=O)c2ccccc2F)[C@H](CO)N3)c1` it is 1.05 ± 0.081. As for `C[C@H](CO)N1C[C@H](C)[C@@H](CN(C)CC2CCCCC2)OCc2cnnn2CCCC1=O`, the figure is 1.08 ± 0.019; as for `CCCC(=O)Nc1ccc2c(c1)C(=O)N(C)[C@@H]1CC[C@H](CC(=O)N3CCCCC3)O[C@H]1CO2`, 1.121 ± 0.0028. Take `CN1C(=O)c2cc(NC(=O)c3cscn3)ccc2OC[C@@H]2O[C@H](CC(=O)N3CCOCC3)CC[C@H]21`: the viability index was 1.15 ± 0.03. Regarding `C[C@H](CO)N1C[C@H](C)[C@@H](CN(C)Cc2cccc(C(F)(F)F)c2)OCc2cnnn2CCCC1=O`, the viability index stood at 0.982 ± 0.056. As for `COc1cccc(S(=O)(=O)Nc2ccc3c(c2)C(=O)N(C)C[C@H](OC)[C@@H](C)CN(Cc2ccccc2F)[C@H](C)CO3)c1`, the figure is 0.99 ± 0.042. Take `CC(C)C#Cc1ccc([C@@H]2[C@@H](CO)N3C(=O)CN(S(=O)(=O)c4ccccc4)C[C@@H]23)cc1`: the viability index came out at 0.986 ± 0.0062. As for `COc1ccc2c3c([C@H](CO)N(C[C@]33CN(C3)C(=O)c3cccc(F)c3)C(=O)c3cccc(F)c3)n(C)c2c1`, the figure is 1.04 ± 0.047. As to `C[C@@H]1CN([C@@H](C)CO)C(=O)c2cc(NC(=O)C3CCCCC3)ccc2O[C@H]1CN(C)C(=O)Nc1ccc(C(F)(F)F)cc1`, the viability index was 1.03 ± 0.11. As for `O=C(C1CCOCC1)N1CC2(C1)[C@@H](c1ccccc1)[C@@H](CO)N2C(=O)CC1CC1`, the figure is 1.017 ± 0.01; as for `COc1ccc(S(=O)(=O)Nc2cccc3c2O[C@H](CN(C)CC2CCCCC2)[C@H](C)CN([C@H](C)CO)C3=O)cc1`, 1.01 ± 0.057; as for `C[C@H]1CN([C@@H](C)CO)S(=O)(=O)c2ccc(-c3cccc(C#N)c3)cc2O[C@H]1CN(C)C(=O)c1ccccc1`, 0.982 ± 0.012. The compound `CO[C@@H]1CN(C)C(=O)c2ccc(NC(=O)c3ccno3)cc2OC[C@H](C)N(S(C)(=O)=O)C[C@@H]1C` had a viability index of 1.078 ± 0.007.

Compound `C[C@H]1CN([C@@H](C)CO)S(=O)(=O)c2ccc(C#Cc3ccccc3F)cc2O[C@H]1CN(C)C(=O)Cc1cccnc1` registered a viability index of 0.905 ± 0.06. As for `COc1cccc(S(=O)(=O)N[C@H]2CC[C@@H](CC(=O)NC3Cc4ccccc4C3)O[C@@H]2CO)c1`, the figure is 0.999 ± 0.044. As for `C[C@@H]1CN([C@H](C)CO)C(=O)c2ccccc2-c2ccccc2CO[C@H]1CN(C)C(=O)[C@H]1CCCN1C`, the figure is 1.06 ± 0.14. In turn, `O=C(Nc1ccccc1F)N1C[C@@H]2[C@H](c3ccccc31)[C@@H](CO)N2C(=O)Cc1cccnc1` returned a viability index of 1.1 ± 0.068. The figure for `CNC[C@@H]1Oc2c(N)cccc2C(=O)N([C@@H](C)CO)C[C@@H]1C` is 1.04 ± 0.084; for `C[C@@H]1CN([C@H](C)CO)C(=O)CCCn2cc(nn2)CO[C@@H]1CN(C)C(=O)NC1CCCCC1` it is 0.984 ± 0.053; for `COCC(=O)N1CC(=O)N2[C@@H](CO)[C@H](c3ccc(-c4ccncc4)cc3)[C@@H]2C1` it is 1.04 ± 0.056. On to `O=C(c1cccnc1)N1CC2(C1)[C@H](c1ccccc1)[C@@H](CO)N2Cc1ccc(Cl)cc1`, for which the viability index is 1.11 ± 0.11.

The compound `C[C@H](CO)N1C[C@H](C)[C@@H](CN(C)Cc2ccncc2)Oc2c(cccc2N(C)C)C1=O` came in with a viability index of 1.05 ± 0.1. As for `C[C@H](O)C#Cc1ccc([C@@H]2[C@H](CO)N3CCCCN(C(=O)c4ccc5c(c4)OCO5)C[C@@H]23)cc1`, the figure is 1.02 ± 0.046; as for `CCCNC(=O)Nc1ccc2c(c1)OC[C@H](C)N(C(=O)C1CCOCC1)C[C@H](C)[C@@H](OC)CN(C)C2=O`, 1.06 ± 0.055. The figure for `O=C(C[C@@H]1CC[C@H]2[C@@H](COC[C@@H](O)CN2C(=O)c2cnccn2)O1)NCc1ccc(Cl)cc1` is 1.01 ± 0.13; for `C[C@@H]1CN([C@H](C)CO)C(=O)Cc2cc(NS(=O)(=O)c3ccc(Cl)cc3)ccc2O[C@H]1CN(C)C(=O)Nc1ccc(C(F)(F)F)cc1` it is 1.02 ± 0.054; for `COCCN(C[C@H]1[C@H](c2ccccc2)[C@@H](CO)N1C(=O)C1CC1)C(C)=O` it is 1.02 ± 0.029. As for `O=C1NCCOCc2cn(nn2)CC[C@@H]1Cc1ccc(F)cc1`, the figure is 1.04 ± 0.1; as for `COc1ccc2c3c([C@@H](CO)N(Cc4cc(OC)cc(OC)c4)C[C@]33CCN(CC3)C(=O)Nc3c(C)noc3C)n(C)c2c1`, 1.07 ± 0.045; as for `COc1ccccc1C#Cc1ccc([C@@H]2[C@H](C#N)N(C(=O)C3CCC3)[C@H]2CO)cc1`, 1.03 ± 0.09.

(Values after the supplement of paper PMC4723716.)
